Target: PRMT5/MEP50 Complex (Homo sapiens (Human), UniProt O14744)
Assay: PRMT5 inhibition based on TR-FRET assay
Format: biochemical
Details: 32 nM PRMT5:MEP50 complex, 50 nM Histone-H4 peptide, 1 μM SAM, 90 minutes at room temperature
From the text: Protein arginine methyltransferase 5 (PRMT5) is a type II arginine methyltransferase that catalyze mono- and symmetric demethylation on arginine residues of histone or non-histone proteins in presence of S-adenosylmethionine (AdoMet or SAM) a cofactor responsible for donating the methyl group. PRMT5 is reported to be overexpressed in several human cancers. To identify compounds that inhibit the PRMT5 and decrease its activity, a TR-FRET based assay has been established. Time-resolved fluorescence resonance energy transfer (TR-FRET) HTS assays are homogeneous proximity assays where the interaction of two dye-labeled binding partners is detected by the energy transfer between a donor and an acceptor dye, and the subsequent light emission by the acceptor dye. PRMT5 catalyzes Histone H4 peptide which is biotin tagged to the Lysine amino acid at carboxyl end, in presence of S-adenosyl-1-methionine (SAM) to methylate the peptide. The antibody specific to mono methylated H4 peptide (H4R3) with Ig conjugate binds to the methylated peptide, indirectly binding to the Europium lanthanide. […]
The compound dilutions were prepared as 7.5% DMSO stock solutions in assay buffer. […] The plates were then read on Victor-3 with Excitation at 340 nm and Emissions collected at 615 and 665 nm in TR-FRET protocol. […]

SMILES	IC50 [µM]
O=C1N(Cc2ccc(C3CC4CCC(C3)O4)nc2)CCN1C[C@H](O)CN1CCc2ccccc2C1 (stereo partly drawn) [Compound 74, 1-((6-(8-oxabicyclo[3.2.1]octan-3-yl)pyridin-3-yl)methyl)-3-((R)-3-(3,4-dihydroisoquinolin-2(1H)-yl)-2-hydroxypropyl)imidazolidin-2-one]	0.026
CC(=O)N1C2CCC1CC(c1ccc(CN3CCN(C[C@H](O)CN4CCc5ccccc5C4)C3=O)nc1)C2 (stereo partly drawn) [Compound 72, 1-((5-(8-acetyl-8-azabicyclo[3.2.1]octan-3-yl)pyridin-2-yl)methyl)-3-((R)-3-(3,4-dihydroisoquinolin-2(1H)-yl)-2-hydroxypropyl)imidazolidin-2-one]	0.019
